Reference: PubChem BioAssay (NCI)
Values joined by “and” are separate entries in the source; they are usually repeats but may differ in a detail not shown here. Identical values can stand only once.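 A five-concentration, 48-hour dose response in 96-well plates underlies each endpoint, interpolated linearly between surrounding concentrations. The concentration for 50% growth inhibition is given as GI50. TGI: concentration producing complete growth inhibition.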 Peptide text beside a SMILES is read from it. * marks the point of attachment. Cbz = O=C(OCc1ccccc1)*; CH2Cl = ClC*

System: NCI-H322M lung
Assay: growth of human tumour cells (NCI), 48 h

SMILES | TGI [µM] | GI50
CN=C1CC2c3cc(OC)c(OC)cc3CCN2C2=C1C(=O)CC(C)(C)C2 (stereo not given) | > 100 | 
CN(C)CC[PH+](c1ccccc1)c1ccccc1.CN(C)CC[PH+](c1ccccc1)c1ccccc1.[Cl-].[Pd+2] | > 100 | > 100 µM
N#Cc1c(-c2ccc(Cl)cc2Cl)nc2[nH][nH]c(=S)n2c1=O | > 100 | 
O=C(O)CCC(NC(=O)OCc1ccccc1)C(=O)NC(Cc1cnc[nH]1)C(=O)O (stereo not drawn) (Cbz-Glu-His-OH; configuration not given here) | > 100 | 
CSc1nc(Nc2cccc(C(F)(F)F)c2)c2c(N)nn(C)c2n1 | > 100 | 
C[C@@H]1CC[C@@H]2[C@@H]1[C@H](OC(=O)/C=C/c1ccccc1)[C@]1(C3CCCCC3)C[C@@H](OC(=O)CO)[C@@]2(C)O1 | 19.9 | 6.12 µM
C/C(Cc1ccccc1)=N\NC(N)=S | > 100 | 
O=C(O)Cc1cc(Cl)ccc1O | > 100 | 
O=[N+]([O-])/C(C(Cl)=C(Cl)Cl)=C(/Cl)Sc1ccccc1 | 31 | 
CN1CCN(C(=S)N2CCN(C)CC2)CC1 | > 100 | 
CCC[CH2][Sn]([Cl])([CH2]CCC)[CH2]CCC | 0.251 | 0.115 µM
COC(=O)C(Cc1c[nH]c2ccccc12)NP(=O)(O)OCC1OC(n2cc(I)c(=O)[nH]c2=O)CC1O (stereo not given) | > 100 | 
O=C1OCC2=C1C(c1cccc(Br)c1)c1cc3c(cc1N2CCO)CCC3 (stereo not given) | 9.6 | 0.343 µM
CC1CCC(=O)C(C(=O)CC2CC(=O)N(C)C(=O)C2)C1 (stereo not given) | > 100 | 
CC12CC(c3ccccc3O1)C(C(=O)Nc1ccc(Cl)cc1Cl)C(=O)N2 (stereo not given) | 72 | 
CC[C@H]1[C@@H]2C=C[C@@H]3[C@H]4C/C=C\C(=O)NCCC[C@@H]5NC(=O)/C(=C(O)/C=C/[C@@H]4C[C@@H]3[C@H]2C[C@H]1C)C5=O | 4.96 | 1.98 µM
CCSc1ncnc2c1ncn2C1OC(CO)C(O)C1O (stereo not given) | > 51.4 | 0.609 µM
CCOC1OC(=O)c2cc3ccc4c(c3c(-c3ccc5c(c3)OCO5)c21)OCO4 (stereo not given) | 97.6 | 
CC1(CCOCc2ccccc2)NC(=O)NC1=O (stereo not given) | > 100 | 
Cc1c(N=Nc2ccc(Cl)cc2)c(-c2ccccc2)n(C2OC(CO)C(O)C(O)C2O)c(=S)c1C#N (stereo not given) | 29.2 | 
COc1ccc(-c2nc3ccc(-c4nc5ccc(N6CCN(c7ccccc7)CC6)cc5[nH]4)cc3[nH]2)cc1OC | 4.85 | 1.99 µM
CN(C)C1(N(C)C)Oc2c(c(=O)n(C)c(=O)n2C)C(c2ccccc2)C1(F)F (stereo not given) | > 100 | 
COc1cccc(C2=NC(C(C)C)CO2)c1 (stereo not given) | > 100 | 

SMILES | TGI [µM] | GI50
OCC1OC(c2nc(C3=NCCCN3)cs2)C(O)C1O (stereo not given) | > 100 | 
COc1cc(C2c3cc4c(cc3OC3(OC)COC(=O)C23)OCO4)cc(OC)c1OC(C)=O (stereo not given) | > 100 | 
CC(=O)Oc1c2c(c(O)c3ccccc13)C(n1cnc3c(ncn3C3OC(CO)C4OC(C)(C)OC43)c1=N)CCC2 (stereo not given) | 34.6 | 
NC(=O)C(C(N)=O)=C(O)C(=O)/C=C(\O)c1ccccc1 | > 100 | 
Cn1cc(-c2csc(-c3c[nH]c4ccc(F)cc34)n2)c2cnccc21 | 3.2 | 1.79 µM
O=c1ccn([C@H]2CSC[C@@H](CO)C2)c(=O)[nH]1 | > 100 | 
CC1CCC(C(C)C)C(OC(=O)NCn2cc(-c3ccccc3)nn2)C1 (stereo not given) | > 100 | 
Cn1nc(C(=O)N2CC(CCl)c3c2cc(N)c2ccccc32)cc1NC(=O)Nc1cc(C(=O)N2CC(CCl)c3c2cc(N)c2ccccc32)nn1C (stereo not given) | 73.2 | 
Cc1ncc(C(=O)Nc2ccc(CN3CCN(C)CC3)c(C(F)(F)F)c2)cc1C#Cc1cnc(N)c2ccncc12 | 3.5 | 1.03 µM
Cn1cc(C2=C(c3cn(CCCCO)c4ccccc34)C(=O)NC2=O)c2ccccc21 | > 24.2 | 9.05 µM
CCOC(=O)CC[C@H](NC(=O)[C@H](N)Cc1ccc(N(CCCl)CCCl)cc1)C(=O)OCC | > 70.3 | 
Cc1nc2c(nc1C)-c1[nH]c3c(c1C(=O)C2=O)CCCC3=O | 26.6 | 
Cc1[nH]c2ccccc2c1C(=O)/C=C/c1ccccc1O | > 100 | 
CCN1CCC(O)(c2ccc(OC)cc2)C(C(=O)c2ccc(OC)cc2)C1 (stereo not given) | > 100 | 
COc1ccc(NC(=O)/C(Cc2cc(=O)oc3cc(O)ccc23)=N\NC(C)(C)C)c(OC)c1 | > 100 | 
O=C(Oc1ccccn1)c1cc2cc(CCl)ccc2oc1=O | > 100 | 
COc1cc2c3c(n(C)c(=O)c2cc1OC)-c1cc2c(cc1/C3=C\CN)OCO2 | 11.1 | 1.68 µM
COc1ccc(C(OCC2OC(n3cc(C)c(=O)[nH]c3=O)CC2n2cc(Cn3cc(Cl)c(=O)[nH]c3=O)nn2)(c2ccccc2)c2ccccc2)cc1 (stereo not given) | > 100 | 
O=C1C(c2c(O)[nH]c3ccc(F)cc23)=Nc2ccccc21 | > 100 | 
Clc1ccc2[nH]cc(-c3nnnn3-c3ccccc3)c2c1 | 59.2 | 12.5 µM
O=C(Nc1ccncc1)C(=O)c1cn(S(=O)(=O)c2ccc(F)cc2)c2ccccc12 | > 100 | 48.1 µM
O=C(c1ccccc1Br)C(F)(F)F | > 100 | 
CCCCNC(=S)Nc1nc(C(=O)NNC(=S)Nc2ccccc2)cs1 | > 100 | 

SMILES | TGI [µM] | GI50
CCOC(=O)C(Cc1ccc(CCCC(=O)NCCC(=O)Nc2ccc3nc(C)sc3c2)cc1)C(=O)OCC | > 100 | > 63.7 µM
O=C(O)C(NCc1ccccc1)C(NCc1ccccc1)C(=O)O (stereo not given) | > 100 | 
O=C(/C=C/c1cc2ccccc2o1)N1CCN(c2ccccn2)CC1 | > 100 | 
CO/N=C(\COc1ccc2c(c1)oc(=O)c1cc(OC)ccc12)c1ccc(OC)cc1 | > 100 | > 100 µM
C/C=C(/C)C(=O)O[C@@H]1CCN2CC[C@H](COC(=O)/C(=C/C)CO)C12 (stereo not given in full) | > 100 | 
O=C1/C(=C/c2cccc(Cl)c2Cl)N=C(c2ccccc2)N1C1CC1 | 28 | 11.4 µM
COC(=O)C(Cc1nc2ccc(Cl)cc2[nH]c1=O)/C(=N\N)C(=O)Nc1cc(C)c(Cl)cc1S(=O)(=O)O (stereo not given) | > 100 | 
O=C(Cn1c[n+](CC(=O)c2ccc(-c3ccccc3)cc2)c2ccccc21)Nc1cccc2cccnc12 | 11.1 | 2.8 µM
O=C1Nc2ccccc2/C1=N\[O-].O=C1Nc2ccccc2/C1=N\[O-].[Cu+2] | > 100 | > 100 µM
CC(C)CC(NC(=O)OCc1ccccc1)C(=O)NC(Cc1ccccc1)C(=O)CCl (stereo not drawn) (Cbz-Leu-Phe-CH2Cl; configuration not given here) | > 100 | 
Cn1c(=O)n(C2(C)C[Se]C2)c2ccccc21 | > 100 | 
CC1OC(OC2C(O)COC(OC3C(C)OC(OC4C(OC(=O)[C@]56CCC(C)(C)C[C@@H]5C5=CCC7[C@@]8(C)C[C@H](O)[C@H](OC9OC(CO)C(O)C(O)C9O)[C@@](C)(CO)[C@@H]8CC[C@@]7(C)[C@]5(C)CC6)OCC(O)C4O)C(O)C3OC3OCC(O)(CO)C3O)C2O)C(O)C(O)C1O (stereo not given in full) | 17.7 | 
CCOC(=O)C(=[N+]=[N-])[Si](C)(C)C | 30.8 | 
CC(=O)c1[nH]c(NCc2ccccc2)c(C(=S)Nc2ccccc2)c1N | > 100 | 
NCCNc1c2c(c(NCCN)c3[nH]ccc13)C(=O)c1ccccc1C2=O | 0.388 | 0.0704 µM
COc1cc2c(cc1OCCCNC(=O)c1cccc3c(=O)c4ccccc4[nH]c13)N=C[C@@H]1CCCN1C2=O | 10.6 | 0.294 µM
COc1cc(NCc2ccc3nc(N)nc(N)c3c2C)cc(OC)c1OC (tested in a mixture with another compound) | 51 | 0.0198 µM and 0.0973 µM
O=C(c1ccccc1)c1cc2ccccc2o1 | > 100 | > 100 µM
Cn1cc(NC(=O)Nc2cc(C(=O)Nc3cc(C(=O)Nc4ccc(S(=O)(=O)O)c5cc(S(=O)(=O)O)ccc45)n(C)c3)n(C)c2)cc1C(=O)Nc1cc(C(=O)Nc2ccc(S(=O)(=O)O)c3cc(S(=O)(=O)O)ccc23)n(C)c1 | > 100 | 
CS(=O)(=O)CCNCc1nc(-c2ccc3ncnc(Nc4ccc(OCc5cccc(C(F)(F)F)c5)cc4)c3c2)cs1 | > 25 | 5.91 µM
CC(OC(C)(C)C)[C@H](NC(=O)OCC(Cl)(Cl)Cl)C(=O)O (stereo not given in full) | > 100 | 
O=C(Nc1nc(=S)c2c(ncn2CCOC(=O)c2ccccc2)[nH]1)c1ccccc1 | > 100 | 
O=C1/C(=C/c2ccccc2S)N=C(c2ccccc2)N1c1nc2c(Cl)cc(Cl)cc2s1 | 71.4 | 

SMILES | TGI [µM] | GI50
Oc1cccnc1[Se] | > 100 | 
COc1ccc(P2(=S)OC(C)(C)C(C)(C)O2)cc1 | > 100 | 
CN(C)CCC(=O)c1ccccc1 | > 100 | 
N#C/C1=C(\N)CCSSSC1 | > 100 | 
C=C(C)[C@@H]1CC[C@]2(C)[C@H](CC=C3[C@@H]4CC(C)(C)CC[C@]4(C(N)=O)CC[C@]32C)[C@@]1(C)CCC#N | > 100 | 4.78 µM
NCc1ccccc1-c1c2nc(c(-c3ccccc3CN)c3ccc([nH]3)c(-c3ccccc3CN)c3nc(c(-c4ccccc4CN)c4ccc1[nH]4)C=C3)C=C2 | 36.5 | 
COc1cccc2c1C(=O)c1c(O)c3c(c(O)c1C2=O)C[C@](O)(C(=O)CO)C[C@H]3O[C@@H]1C[C@@H](NC(=O)CCCCCN(C)C2(c3ccc(F)cc3)CC3CCC2C3)[C@H](O)[C@@H](C)O1 (stereo not given in full) | 14 | 7.38 µM
Nc1ncnc2c1ncn2[C@@H]1C[C@@H]1CO | > 100 | 
COC1(OC)C(N(C)C)=C(Cl)C(=O)/C1=C/C=O | > 100 | 
O=[N+]([O-])c1ccc2c(c1)C1=C(CO2)Cc2ccccc2O1 | > 100 | 
Cc1[nH]nc(C(F)(F)F)c1N=NN1CCOCC1 | 30.3 | 
Oc1[nH]c2ccccc2c1N=NC(=S)Nc1cccc(Cl)c1 | 71.7 | 
C=CCn1c(C)nc2ccc(Nc3nc(Nc4ccc5nc(C)n(CC=C)c5c4)c4ccccc4n3)cc21 | 3.24 | 1.71 µM
CN1C2CCC1CC(=CCOC(c1ccc(F)cc1)c1ccc(F)cc1)C2 | 28.9 | 
CN1CCOC(c2ccccc2)O1 (stereo not given) | > 100 | 
Cc1ccc(/C=C/C(=O)c2sc(-c3nc(C)c(C(=O)/C=C/c4ccc(C)cc4)s3)nc2C)cc1 | > 100 | 
CN(C)CCCC12CCCCC1=Nc1ccccc12 (stereo not given) | > 100 | 
CC#CCOC(=O)c1ccccc1OC(C)=O | > 100 | 
CCOc1ccc(NC(=O)C(=O)CC(=O)c2c(C)n([O-])c3ccccc3[n+]2=O)cc1 | > 100 | 
Cc1ccc(-n2c(N)c(C#N)c3[nH]nc(N)c3c2=O)cc1 | > 100 | 
COc1cc(-n2cc(-c3ccc(F)cc3)[nH]c2=O)cc(OC)c1OC | > 100 | > 100 µM
OC1C#CCSCC#C/C=C\1 (stereo not given) | > 100 | 
Nc1c(C(=O)Nc2ccncc2)sc2nc3c(cc12)CCCCCCCC3 | 1.78 | 0.896 µM
